In one assay the test system is HSkMC. The assay can be described thus: cytotoxicity call (relative viability < 0.9). The settings on record: 10 µM.
The next assay deals with HepG2. The assay can be described thus: cytotoxicity call (relative viability < 0.9). The settings on record: 10 µM.
In another assay the test system is S. aureus RN4220. The assay can be described thus: growth inhibition call (relative growth <= 0.2). The conditions noted are these: 50 µM.

This is one part of the list.

Consider `O=C(CCC1CCCCC1)NCCC12CC3CC(CC(C3)C1)C2`, for which the cytotoxicity call in the assay with HSkMC and with HepG2 was “inactive” each time. Also, the growth inhibition call in the assay with S. aureus RN4220 was “inactive”.

In the case of `C[C@@H]1CN([C@@H](C)CO)C(=O)c2cc(NS(=O)(=O)c3ccc(Cl)cc3)ccc2O[C@@H](C)CCCCO[C@H]1CN(C)Cc1ccccc1`, the cytotoxicity call in the assay with HSkMC and with HepG2 was “inactive” in each case. Besides, in the assay on S. aureus RN4220, the growth inhibition call was “inactive”.

Take `CO[C@@H]1CN(C)C(=O)c2ccc(NC(=O)Nc3ccccc3)cc2OC[C@@H](C)N(C(=O)CN(C)C)C[C@@H]1C`: the cytotoxicity call with HSkMC and with HepG2 was “inactive” throughout. Moreover, the growth inhibition call in the assay with S. aureus RN4220 is “inactive”.

Take `C[C@H]1CN([C@@H](C)CO)C(=O)c2c(c3ccccc3n2C)-c2ccccc2CO[C@@H]1CN(C)C(=O)Nc1ccc2c(c1)OCO2`: the cytotoxicity call in the assay on HSkMC and in the assay with HepG2 was “inactive” in each case. Besides, the growth inhibition call with S. aureus RN4220 was “inactive”.

As to `C[C@@H]1CN([C@@H](C)CO)C(=O)CCCn2cc(nn2)CO[C@H]1CN(C)C(=O)Nc1ccc(C(C)(C)C)cc1`, the cytotoxicity call in the assay with HSkMC and in the assay on HepG2 was “inactive” throughout. Also, the growth inhibition call in the assay with S. aureus RN4220 is “inactive”.

For `CC1=CC2C(CC1=O)C2(C)C` (configuration not stated), the cytotoxicity call in the assay on HSkMC and in the assay on HepG2 was “inactive” throughout. The growth inhibition call in the assay with S. aureus RN4220 is “inactive”.

`COCC(=O)Nc1ccc2c(c1)C(=O)N(C)C[C@H](OC)[C@H](C)CN(C(=O)c1ccccc1F)[C@H](C)CO2`: the cytotoxicity call in the assay on HSkMC and in the assay on HepG2 was “inactive” throughout. Besides, the growth inhibition call in the assay on S. aureus RN4220 is “inactive”.

For the molecule `N#Cc1c(Oc2ccc(F)c(NC(=O)Cc3cccc(C(F)(F)F)c3)c2)ccc2nc(NC(=O)C3CC3)sc12`, the cytotoxicity call in the assay with HSkMC and with HepG2 was “active” throughout. Also, the growth inhibition call in the assay with S. aureus RN4220 was “inactive”.

For the molecule `CO[C@@H]1CN(C)C(=O)c2ccc(NC(=O)Nc3ccc(Cl)cc3)cc2OC[C@@H](C)N(C(=O)Nc2c(C)noc2C)C[C@@H]1C`, the cytotoxicity call in the assay on HSkMC and in the assay on HepG2 was “inactive” each time. In addition, the growth inhibition call in the assay with S. aureus RN4220 was “inactive”.

On to `C[C@@H]1CCCCO[C@H](CN(C)Cc2ccc(Cl)c(Cl)c2)[C@@H](C)CN([C@H](C)CO)C(=O)c2cc(NC(=O)C3CCCCC3)ccc2O1`, for which the cytotoxicity call in the assay on HSkMC and with HepG2 was “inactive” each time. In addition, the growth inhibition call with S. aureus RN4220 was “inactive”.

In the case of `C[C@H](CO)N1C[C@H](C)[C@H](CN(C)CC2CCCCC2)OCCCC[C@H](C)Oc2ccc(NC(=O)CCC(F)(F)F)cc2C1=O`, the cytotoxicity call in the assay on HSkMC and in the assay on HepG2 was “inactive” throughout. Moreover, the growth inhibition call with S. aureus RN4220 was “inactive”.

For the molecule `C[C@H]1CCCCO[C@H](CN(C)C)[C@@H](C)CN([C@@H](C)CO)C(=O)c2cc(NC(=O)CCCN(C)C)ccc2O1`, the cytotoxicity call in the assay on HSkMC and with HepG2 was “inactive” each time. For the same molecule, the growth inhibition call with S. aureus RN4220 is “inactive”.

Consider `COc1ccc(C#Cc2cnc3c(c2)C(=O)N([C@H](C)CO)C[C@H](C)[C@H](CN(C)S(=O)(=O)c2cn(C)cn2)O3)cc1OC`, for which the cytotoxicity call with HSkMC and with HepG2 was “inactive” each time. Moreover, in the assay with S. aureus RN4220, the growth inhibition call was “inactive”.

For `CCc1cn(C2OCC(O)C2CO)c(=O)nc1O` (configuration not stated), the cytotoxicity call with HSkMC and in the assay on HepG2 was “inactive” in each case. Besides, the growth inhibition call with S. aureus RN4220 is “inactive”.

As to `CC12CCC(CC1=O)C2(C)C` (configuration not stated), the cytotoxicity call in the assay on HSkMC and with HepG2 was “inactive” in each case. Besides, the growth inhibition call in the assay on S. aureus RN4220 was “inactive”.

As to `OCC(O)CN1CCN(c2ccccc2)CC1` (configuration not stated), the cytotoxicity call in the assay with HSkMC and with HepG2 was “inactive” each time. The growth inhibition call with S. aureus RN4220 is “inactive”.

Regarding `Cc1noc(C)c1S(=O)(=O)N(C)C[C@H]1Oc2ccc(NC(=O)Nc3ccc4c(c3)OCO4)cc2CC(=O)N([C@H](C)CO)C[C@H]1C`, the cytotoxicity call in the assay with HSkMC and with HepG2 was “inactive” throughout. In the assay with S. aureus RN4220, the growth inhibition call is “inactive”.

With `C[C@H](CO)N1C[C@H](C)[C@@H](CN(C)S(=O)(=O)c2cccs2)Oc2ccc(NC(=O)CCC(F)(F)F)cc2CC1=O`, the cytotoxicity call in the assay with HSkMC and in the assay with HepG2 was “inactive” in each case. Also, the growth inhibition call in the assay on S. aureus RN4220 was “inactive”.

Consider `C[C@@H]1CN([C@@H](C)CO)C(=O)c2cccc(NC(=O)Nc3cccc4ccccc34)c2O[C@@H]1CN(C)Cc1ccc(C(=O)Nc2ccccc2N)cc1`, for which the cytotoxicity call in the assay on HSkMC and in the assay on HepG2 was “inactive” throughout. The growth inhibition call in the assay with S. aureus RN4220 was “inactive”.

Regarding `O=C(C[C@@H]1C=C[C@@H](NC(=O)Cc2ccccn2)[C@H](CO)O1)NCCCN1CCOCC1`, the cytotoxicity call in the assay with HSkMC and in the assay with HepG2 was “inactive” in each case. For the same molecule, the growth inhibition call in the assay on S. aureus RN4220 is “inactive”.

For `Cn1cnc(S(=O)(=O)N[C@H]2CC[C@@H](CC(=O)N3CCN(c4ccccc4)CC3)O[C@@H]2CO)c1`, the cytotoxicity call in the assay with HSkMC and in the assay with HepG2 was “inactive” in each case. In addition, the growth inhibition call in the assay on S. aureus RN4220 is “inactive”.

As for `C[C@@H]1CN([C@H](C)CO)C(=O)c2cc(NC(=O)c3ccncc3)ccc2O[C@@H]1CN(C)C(=O)Nc1ccc2c(c1)OCO2`, the cytotoxicity call with HSkMC and in the assay with HepG2 was “inactive” each time. The growth inhibition call with S. aureus RN4220 was “inactive”.

With `CCC(C)C(=O)OC1CCC=C2C=CC(C)C(CCC3CC(O)CC(=O)O3)C21` (configuration not stated), in the assay on HSkMC, the cytotoxicity call was “inactive”. In the assay with HepG2, the cytotoxicity call was “active”. Besides, the growth inhibition call in the assay with S. aureus RN4220 is “inactive”.

Regarding `CCCn1c(=O)[nH]c(=O)c2[nH]cnc21`, the cytotoxicity call in the assay on HSkMC and with HepG2 was “inactive” each time. Further, the growth inhibition call in the assay on S. aureus RN4220 is “inactive”.

As to `COc1ccc(NC(=O)N(C)C[C@@H]2Oc3ccc(NC(=O)Nc4cccc5ccccc45)cc3C(=O)N([C@@H](C)CO)C[C@H]2C)cc1`, the cytotoxicity call in the assay with HSkMC and in the assay with HepG2 was “inactive” each time. In addition, the growth inhibition call in the assay on S. aureus RN4220 is “inactive”.

Consider `CCS(=O)(=O)N1C[C@]2(CCN(CC2)C(=O)c2cccnc2)c2c(n(c3cc(ccc23)OC)C)[C@H]1CO`, for which the cytotoxicity call in the assay with HSkMC and in the assay on HepG2 was “inactive” each time. Further, in the assay with S. aureus RN4220, the growth inhibition call is “inactive”.

For `C[C@H]1CCCCO[C@H](CN(C)C(=O)Nc2ccc(C(F)(F)F)cc2)[C@@H](C)CN([C@@H](C)CO)C(=O)c2cc(NC(=O)CCC(F)(F)F)ccc2O1`, in the assay on HSkMC (human skeletal muscle cells), the cytotoxicity call is “inactive”. Moreover, the cytotoxicity call with HepG2 was “active”. Besides, the growth inhibition call in the assay on S. aureus RN4220 is “inactive”.

As for `CCC(=O)N1CCN(c2ccc(-n3c(=O)ccc4cnc5ccc(-c6cnc7ccccc7c6)cc5c43)cc2C(F)(F)F)CC1`, the cytotoxicity call with HSkMC and in the assay on HepG2 was “active” throughout. Further, the growth inhibition call in the assay on S. aureus RN4220 is “inactive”.

With `COC(=O)C1=COC(OC2OC(CO)C(O)C(O)C2O)C2C(C)CC(=O)C12` (configuration not stated), the cytotoxicity call in the assay with HSkMC and with HepG2 was “inactive” throughout. In addition, the growth inhibition call with S. aureus RN4220 was “inactive”.

The record behind these values is the antibiotic and cytotoxicity screens of Wong et al. (2023).
